# Source: PubChem BioAssay AID686971 (National Center for Advancing Translational Sciences (NCATS), 2013)
# Hit rate of the full screen: of about 360,000 compounds, about 7,500 (2.1%) were called active. Inconclusive results, whose numbers are uncertain, are shown with a selection of clear calls. Calls come from the whole dose curve; as a rule, active = well fitted cell-killing curve with a large enough effect; inconclusive = small, poorly fitted or top-dose-only effect, or effect the other way, or another doubt; inactive = no such curve, though single readings can be large or run the other way. Potencies of inconclusive entries are doubtful fits and often do not repeat.
# Assay: qHTS for induction of synthetic lethality in tumor cells producing 2HG: qHTS for the HT-1080-IDH1KD cell line;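 for activity, negative = toxicity: 0% = DMSO wells and -100% = cell-free medium wells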
# Settings: HT-1080 IDH1 knockdown viability, ATP luminescence, 48 h; activity, negative = toxicity: at 46.1 µM (top of the series) unless noted
# Method in brief: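 Luminescent ATP read-out (CellTiter-Glo, 10 min at room temperature) after 48 h compound exposure at 37 °C gave viability of IDH1-knockdown HT-1080 cells. Activity was normalised to DMSO and cell-free wells, then fitted as concentration-response curves.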
# Potency is the fitted concentration of half-maximal effect; tags give direction and shape of the fitted curve.
SMILES,Potency,"activity, negative = toxicity"
C=CCn1nnnc1-c1cccc(Cl)c1,"inconclusive: 7.31 µM [rising, partial curve]",
COc1ccc(-n2cc(CNC3CCN(C)CC3)c(-c3cccc(F)c3)n2)cc1,active: 20.6 µM,
CCOC(=O)C1=C(c2ccccc2)NC(N)=NC1c1ccc(OCc2ccc(C(=O)OC)cc2)cc1 (centres undefined),active: 20.6 µM,
COc1ccc2c(c1)CC(N1CCN(C)CC1)c1cc(OC)ccc1S2 (centres undefined),active: 20.6 µM,
CCOc1ccc(-n2c(-c3ccc(Cl)cc3)c[n+]3c2SCC3)cc1,active: 23.1 µM,
CCOc1ccc(C(=O)/C=C/c2cc(OC)c(OC)c(OC)c2)cc1,active: 16.4 µM,
C#CCOCCOCCOCCNc1nc(N2CCN(C(=O)CCCCCCCCCCNC(=O)[C@H](CCCCN)n3cc(C[C@@H](C)CC)nn3)CC2)nc(N2CCN(C(=O)CCCCCCCCCCNC(=O)[C@H](CCCCN)n3cc(C[C@@H](C)CC)nn3)CC2)n1,"inconclusive: 20.6 µM [cytotoxic, single point]",
CCc1cccc(CC)c1N(COC)C(=O)Cn1c(C(C)O)nc2ccccc21 (centres undefined),,inactive: 13.6%
O=C(c1ccc(COc2ccc(Cl)cc2)o1)N1N=C(C(F)F)CC1(O)C(F)F (centres undefined),"inconclusive: 20.6 µM [cytotoxic, single point]",
CCn1nc(C)cc1C(=O)Sc1cccc(Br)c1,active: 20.6 µM,
COc1ccc(OC)c(-c2cc(C(=O)N3CCCc4ccccc43)no2)c1,"inconclusive: 35.5 µM [cytotoxic, single point]",
CC(=O)Nc1sc(C)c(C)c1C(=O)OCC(=O)NCc1ccc(Cl)cc1,"inconclusive: 29.1 µM [rising, single point]",
Cc1ccc(S(=O)(=O)N2[C@H](CC(=O)c3ccc(Cl)c(Cl)c3)OC[C@@H]2C)cc1,"inconclusive: 18.4 µM [cytotoxic, single point]",
COc1ccc2c(c1)C(C)=CC(C)(C)N2S(=O)(=O)c1ccc(C)cc1,active: 0.92 µM,
CCCC(=O)NC(c1cccc([N+](=O)[O-])c1)c1ccc2cccnc2c1O (centres undefined),"inconclusive: 4.11 µM [cytotoxic, full curve]",
CCOC(=O)NC(Nc1sc2c(c1C(N)=O)CCCC2)(C(=O)OCC)C(F)(F)F (centres undefined),"inconclusive: 2.51 µM [rising, full curve, poor fit]",
COCC1CCN(C(=O)c2oc3c(F)cccc3c2C)C1 (centres undefined),,inactive: 12.8%
COc1ccc(-c2cnnc(N/N=C/c3ccc(C)o3)n2)cc1,,inactive: -0.958%
O=C(Nc1cccnc1)C1Cc2c(-c3ccccc3Oc3ccccc3)ccnc2O1 (centres undefined),"inconclusive: 18.4 µM [cytotoxic, single point]",
O=C(O)C(c1ccccc1)N1C(=O)/C(=C/c2cccs2)SC1=S (centres undefined),,inactive: 13.9%
Cc1ccc2c(c1)C(=O)C(=O)N2CCOc1ccccc1,active: 20.6 µM,
CCC(=O)N1CCN(c2ccc(NC(=O)c3ccc4c(c3)OCO4)cc2)CC1,"inconclusive: 18.4 µM [cytotoxic, single point]",

SMILES,Potency,"activity, negative = toxicity"
CCc1cc(=O)n2[nH]c(-c3ccccc3)c(-c3ccccc3)c2n1,"inconclusive: 8.2 µM [cytotoxic, partial curve]",
O=C(CSc1nc(-c2cccs2)cc(C(F)(F)F)n1)Nc1cc(OCC(F)(F)F)cc([N+](=O)[O-])c1,active: 16.4 µM,
CN(CC(=O)OCC(=O)NCc1ccccc1)S(=O)(=O)c1ccc(Cl)cc1,"inconclusive: 16.4 µM [rising, partial curve]",
C=CCc1cc(Cl)ccc1OCCOCCNC(C)CC (centres undefined),"inconclusive: 16.4 µM [cytotoxic, partial curve]",
O=C(Nc1cccc(S(=O)(=O)c2cccc(NC(=O)C3CC3)c2)c1)C1CC1,,inconclusive: 4.77% [cytotoxic] [at 9.24 µM]
COc1cccc2sc(N(CCCN(C)C)C(=O)CCS(=O)(=O)c3ccccc3)nc12,"inconclusive: 23.1 µM [cytotoxic, single point]",
O=C(CCN1CCC(c2ccccc2)C1)c1ccc2c(c1)OCCO2 (centres undefined),active: 18.4 µM,
CC(C)(C)NC(=O)C(c1ccc(C#N)cc1)n1c(=O)c(-c2cc3ccccc3[nH]2)nc2ccccc21 (centres undefined),"inconclusive: 8.2 µM [cytotoxic, partial curve]",
CCOc1ccc(-c2cc(C(=O)NCCCn3ccnc3)c3cc(Br)ccc3n2)cc1,"inconclusive: 16.4 µM [cytotoxic, single point]",
Cc1c(C(=O)N2CCC(Cc3ccccc3)CC2)cccc1[N+](=O)[O-],"inconclusive: 29.1 µM [cytotoxic, single point]",
CN(C)c1ccc(CNC(=O)C2Cc3c(-c4cccc(C(N)=O)c4)ccnc3O2)cc1 (centres undefined),"inconclusive: 18.4 µM [cytotoxic, single point]",
COc1ccc2ccc(O)c(CN(C)CC(=O)Nc3ccccc3C(F)(F)F)c2c1,,inactive: -29.9%
COC(=O)[C@]12CCCCC=C1N(Cc1ccc3c(c1)OCO3)C(=O)[C@H](CC(=O)NCCCCc1ccccc1)C2,"inconclusive: 25.9 µM [cytotoxic, single point]",
COc1ccc(NC(=O)N2CCC(C(=O)c3ccc4c(c3)OCCO4)CC2)cc1,,inactive: -19.1%
COc1ccccc1C1C2CCCCC2(O)CCN1CC(=O)Nc1ccccc1 (centres undefined),"inconclusive: 35.5 µM [cytotoxic, single point]",
O=C(N/N=C/c1ccc(Cl)cc1)c1sccc1OCc1ccc(F)cc1,active: 1.3 µM,
CCCCCC1CC(=O)C=C(C)C1C(=O)OC (centres undefined),,inactive: 15.5%
COc1ccccc1C(=O)Nc1ccccc1SC(=O)c1ccccc1OC,"inconclusive: 13 µM [cytotoxic, partial curve]",
O=C(Nc1ccccn1)C1CCCN1S(=O)(=O)c1ccc(Cl)cc1 (centres undefined),,inactive: 0.0153%
COC(=O)c1cn(C(=O)c2ccc(C)cc2C)c2ccccc12,active: 6.51 µM,
CCN1C/C(=C/c2cccs2)c2nc3ccccc3c(C(=O)O)c2C1,,inactive: -8.96%
Cc1ccc(-c2noc(CCC(=O)NCCCN3CCN(c4cccc(Cl)c4)CC3)n2)cc1,"inconclusive: 18.4 µM [cytotoxic, single point]",
